Experimental data from ChEMBL document CHEMBL1961873, “Compounds: GSK PKIS; Assays: Nanosyn kinase panel” (2012).
For part of these data: The strong results were mostly taken out for another list; the other results follow. This is a selection; strong and weak results do not stand in their true shares.

Assays:
[1] = molecular target: Serine/threonine-protein kinase PAK 6 (Homo sapiens) (UniProt Q9NQU5); settings: at 1 µM;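 also: values are mean percent inhibition of PAK6 kinase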
[2] = test system: Tyrosine-protein kinase ABL1 (Homo sapiens), P00519 [E255K]; settings: at 0.1 µM
[3] = test system: Tyrosine-protein kinase ABL1 (Homo sapiens), P00519 [E255K]; settings: at 1 µM
[4] = test system: Tyrosine-protein kinase ABL1 (Homo sapiens), P00519 [H396P]; settings: at 0.1 µM
[5] = test system: Tyrosine-protein kinase ABL1 (Homo sapiens), P00519 [H396P]; settings: at 1 µM
[6] = test system: Tyrosine-protein kinase ABL1 (Homo sapiens), P00519 [M351T]; settings: at 0.1 µM
[7] = test system: Tyrosine-protein kinase ABL1 (Homo sapiens), P00519 [M351T]; settings: at 1 µM
[8] = test system: Tyrosine-protein kinase ABL1 (Homo sapiens), P00519 [Q252H]; settings: at 0.1 µM
[9] = test system: Tyrosine-protein kinase ABL1 (Homo sapiens), P00519 [Q252H]; settings: at 1 µM
[10] = test system: Tyrosine-protein kinase ABL1 (Homo sapiens), P00519 [T315I]; settings: at 0.1 µM

UniProt Q9NQU5, sequence (Q9NQU5 whole entry, looked up): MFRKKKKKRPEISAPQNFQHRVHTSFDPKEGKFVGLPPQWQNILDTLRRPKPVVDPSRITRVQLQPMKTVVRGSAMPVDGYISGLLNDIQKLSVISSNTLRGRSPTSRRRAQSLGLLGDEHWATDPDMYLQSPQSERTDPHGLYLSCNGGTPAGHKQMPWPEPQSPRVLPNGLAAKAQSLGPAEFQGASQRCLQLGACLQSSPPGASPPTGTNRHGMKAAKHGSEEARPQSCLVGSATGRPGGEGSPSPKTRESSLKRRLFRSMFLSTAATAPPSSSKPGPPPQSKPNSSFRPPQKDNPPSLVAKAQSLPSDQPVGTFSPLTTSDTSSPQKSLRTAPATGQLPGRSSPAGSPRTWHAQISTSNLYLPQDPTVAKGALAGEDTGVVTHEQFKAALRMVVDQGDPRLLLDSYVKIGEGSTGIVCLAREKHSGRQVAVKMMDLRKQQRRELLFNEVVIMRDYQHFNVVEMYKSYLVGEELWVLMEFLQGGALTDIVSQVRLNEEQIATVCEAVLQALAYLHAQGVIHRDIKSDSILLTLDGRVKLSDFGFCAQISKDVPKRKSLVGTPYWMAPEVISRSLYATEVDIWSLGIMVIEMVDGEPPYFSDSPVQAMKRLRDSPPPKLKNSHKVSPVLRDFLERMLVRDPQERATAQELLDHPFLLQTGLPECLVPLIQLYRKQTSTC

Row | Compound | inhibition [1] [%] | inhibition [2] [%] | inhibition [3] [%] | inhibition [4] [%] | inhibition [5] [%] | inhibition [6] [%] | inhibition [7] [%] | inhibition [8] [%] | inhibition [9] [%] | inhibition [10] [%]
1 | Cc1cccc(Oc2nccc(-c3c(-c4ccc(F)cc4)ncn3C3CCNCC3)n2)c1C | -6.34 | 2.57 | 3.66 | 4.88 | 2.84 | 0.42 | 1.41 | 3.26 | 2.5 | 3.22
2 | O=C1NC(=O)C(c2ccccc2Cl)=C1Nc1cc(Cl)c(O)c(Cl)c1 | 2.83 | 3.35 | 3.75 | 3.38 | 6.54 | 2.32 | 4.78 | 2.34 | 5.46 | 2.52
3 | Fc1ccc(-c2ncn(C3CCNCC3)c2-c2ccnc(Oc3cccc(F)c3)n2)cc1 | -7.2 | 1.93 | 3.41 | 5.32 | 6.96 | 0.57 | 3.04 | 3.71 | 5.14 | 3.41
4 | COc1ccccc1Oc1nccc(-c2c(-c3ccc(F)cc3)ncn2C2CCNCC2)n1 |  | 1.9 | 2.74 | 5.02 | 5.18 | -1.59 | 2.32 | 3.57 | 4.17 | 2.9
5 | CC(C)(C)c1ccc(Oc2nccc(-c3c(-c4ccc(F)cc4)ncn3C3CCNCC3)n2)cc1 | -6.91 | 1.59 | 4.17 | 3.43 | 4.77 | 1.02 | 3.35 | 3.7 | 5.19 | 2.69
6 | O=C1NC(=O)C(c2cccc([N+](=O)[O-])c2)=C1Nc1cc(Cl)c(O)c(Cl)c1 | 3.31 | 0.35 | 1.28 | 2.05 | 0.91 | -0.57 | 1.66 | 1.36 | 0.95 | 2.36
7 | COc1ccccc1C1=C(Nc2ccccc2)C(=O)NC1=O | 2.59 | 0.25 | 7.26 | 5.12 | 17.5 | 4.29 | 16.6 | 4.69 | 16.8 | 3.65
8 | O=C1NC(=O)C(c2ccccc2)=C1Nc1ccccc1 | -4.76 | 3.1 | 7.6 | 5.19 | 9.3 | 1.89 | 8.42 | 5.39 | 6.71 | 2.94
9 | Fc1ccc(Oc2nccc(-c3c(-c4ccc(F)cc4)ncn3C3CCNCC3)n2)cc1 | -1.21 | -4.08 | 0.35 | 2.33 | 2.64 | 0.1 | 0.1 | 1.9 | 0.73 | -1.07
10 | O=C(O)c1ccc(Oc2nccc(-c3c(-c4ccc(F)cc4)ncn3C3CCNCC3)n2)cc1 | -0.55 | 0.44 | 1.58 | 3.47 | 3.39 | 2.2 | 0.58 | 4.14 | 5.56 | 0.99
11 | NC(=O)CCc1ccccc1Oc1nccc(-c2c(-c3ccc(F)cc3)ncn2C2CCNCC2)n1 | -6.74 | -0.66 | -0.46 | -1.55 | 0.15 | 0.79 | 0.61 | 0.49 | 0.64 | -0.83
12 | CS(=O)(=O)c1ccc(Oc2nccc(-c3c(-c4ccc(F)cc4)ncn3C3CCNCC3)n2)cc1 | -7.17 | 3.59 | 4.16 | 4.76 | 4.88 | 2 | 3.5 | 4.49 | 5.16 | 3.06
13 | Fc1ccc(-c2ncn(C3CCNCC3)c2-c2ccnc(Oc3ccc(Cl)cc3)n2)cc1 |  | 0.61 | 1.68 | 1.78 | 2.1 | -0.43 | 3.39 | -0.08 | 1.98 | 0.91
14 | Fc1ccc(-c2ncn(C3CCNCC3)c2-c2ccnc(Oc3cccc(C(F)(F)F)c3)n2)cc1 | -4.55 | 3.44 | 4.64 | 4.67 | 6.23 | 2.52 | 3.25 | 5.29 | 5.37 | 2.52
